Measured values as given in PMC4336329 (PLoS ONE, 2015).
About 14,000 (4.5%) of roughly 310,000 compounds showed an effect of 50% or more. Effects have a minus sign here. This is one part of the list.

Molecular target: human ether-à-go-go-related gene (hERG) potassium channel (human, UniProt Q12809)
Test: primary screen, population patch clamp on CHO cells stably expressing hERG
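Further: peak tail current of the secondary pulse compared with the same well before compound.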

Sequence of human ether-à-go-go-related gene (hERG) potassium channel (Q12809 whole entry, looked up): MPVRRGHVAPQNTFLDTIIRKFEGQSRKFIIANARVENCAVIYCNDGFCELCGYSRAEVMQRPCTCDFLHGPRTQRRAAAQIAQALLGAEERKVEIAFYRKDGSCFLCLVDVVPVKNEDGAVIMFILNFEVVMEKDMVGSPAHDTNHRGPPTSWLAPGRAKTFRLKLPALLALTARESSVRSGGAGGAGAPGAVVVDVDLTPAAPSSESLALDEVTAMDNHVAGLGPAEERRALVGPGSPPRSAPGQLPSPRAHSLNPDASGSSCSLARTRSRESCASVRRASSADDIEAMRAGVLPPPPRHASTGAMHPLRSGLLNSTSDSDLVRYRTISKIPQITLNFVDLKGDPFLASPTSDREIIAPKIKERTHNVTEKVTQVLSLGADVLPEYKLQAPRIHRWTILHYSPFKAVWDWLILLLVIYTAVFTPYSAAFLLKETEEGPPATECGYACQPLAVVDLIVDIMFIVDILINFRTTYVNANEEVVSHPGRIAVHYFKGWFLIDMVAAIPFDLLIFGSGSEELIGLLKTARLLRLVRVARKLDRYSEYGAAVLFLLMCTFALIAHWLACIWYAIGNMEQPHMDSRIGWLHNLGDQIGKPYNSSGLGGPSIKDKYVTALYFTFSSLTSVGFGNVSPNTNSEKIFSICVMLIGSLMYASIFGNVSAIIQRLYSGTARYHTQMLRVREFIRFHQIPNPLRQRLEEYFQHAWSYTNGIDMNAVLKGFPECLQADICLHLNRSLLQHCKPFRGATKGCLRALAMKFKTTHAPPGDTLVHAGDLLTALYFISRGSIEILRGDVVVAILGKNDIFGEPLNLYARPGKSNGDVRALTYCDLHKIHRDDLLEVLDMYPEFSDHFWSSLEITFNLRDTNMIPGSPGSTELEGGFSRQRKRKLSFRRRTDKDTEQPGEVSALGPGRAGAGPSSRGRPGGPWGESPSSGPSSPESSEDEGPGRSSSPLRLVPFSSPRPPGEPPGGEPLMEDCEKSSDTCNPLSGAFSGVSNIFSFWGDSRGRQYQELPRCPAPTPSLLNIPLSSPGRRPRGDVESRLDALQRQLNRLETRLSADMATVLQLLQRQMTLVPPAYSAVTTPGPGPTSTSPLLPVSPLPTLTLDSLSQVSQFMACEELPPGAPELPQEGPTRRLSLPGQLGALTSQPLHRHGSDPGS

Question: `CC(C)CC(=O)Nc1ccnn1C1CCN(C(=O)c2ccccc2F)CC1` was tested. Which “hERG current change (%, negative = inhibition) at 10uM” value did it give?
Answer: 19%

Question: `O=C(NC1CCCCC1)[C@H](O)[C@@H](O)C(=O)NC1CCCCC1` was tested. Which “hERG current change (%, negative = inhibition) at 10uM” value did it give?
Answer: 16.8%

Question: `COCCCn1c(=O)cc(C)[nH]c1=S` was tested. Which “hERG current change (%, negative = inhibition) at 10uM” value did it give?
Answer: 15.6%

Question: How did the “hERG current change (%, negative = inhibition) at 10uM” value turn out when `O=C(OC1CCOC1=O)c1cc(-c2ccc(Cl)cc2)nc2ccccc12` (centres unmarked) was run?
Answer: 10.2%

Question: `CC(=O)c1ccc(N2CCN(S(=O)(=O)c3csc(C(N)=O)c3)CC2)cc1` was tested. Which “hERG current change (%, negative = inhibition) at 10uM” value did it give?
Answer: -26.1%

Question: Which “hERG current change (%, negative = inhibition) at 10uM” value does the source give for `Cc1cccc(NCc2nc3ccccc3n2Cc2ccccc2)c1` here?
Answer: -13.1%

Question: `COc1n[nH]c(C(=O)NCc2ccccc2)c1[N+](=O)[O-]` was tested. Which “hERG current change (%, negative = inhibition) at 10uM” value did it give?
Answer: 21.1%

Question: `CC(C)(C)Nc1nc(C(N)=O)nc(N2CCOCC2)n1` was tested. Which “hERG current change (%, negative = inhibition) at 10uM” value did it give?
Answer: -0.829%

Question: Which “hERG current change (%, negative = inhibition) at 10uM” value does the source give for `CCOC(=O)c1cnc(Nc2ccccc2)nc1C(F)(F)F` here?
Answer: -2.36%

Question: How did the “hERG current change (%, negative = inhibition) at 10uM” value turn out when `Cc1ccc(/C=N/n2c(COc3ccccc3)n[nH]c2=S)o1` was run?
Answer: 4.76%

Question: With `CC(c1ccccc1)N1C(=O)c2ccc(C(=O)Nc3ccccc3C(=O)O)cc2C1=O` (centres unmarked) as the molecule, how does the “hERG current change (%, negative = inhibition) at 10uM” value read?
Answer: 18.7%

Question: For `CSc1ccc(S(=O)(=O)NC2CCCCC2)cc1`, which “hERG current change (%, negative = inhibition) at 10uM” value is on record?
Answer: -25.8%

Question: With `COc1cc(C(=O)NC2CC(C)(C)CC(C)(C)C2)ccc1OC1CCN(C(C)=O)CC1` as the molecule, how does the “hERG current change (%, negative = inhibition) at 10uM” value read?
Answer: 6.2%

Question: How did the “hERG current change (%, negative = inhibition) at 10uM” value turn out when `CCN1CCN(Cc2ccc(C(=O)Nc3ccc(C)c(NCc4cnc(NC(=O)OC)cn4)c3)cc2C(F)(F)F)CC1` was run?
Answer: 6.69%

Question: For `O=C(Nc1ccc(NC(=S)NC(=O)c2cccs2)cc1)c1ccco1`, which “hERG current change (%, negative = inhibition) at 10uM” value is on record?
Answer: 56.8%

Question: Which “hERG current change (%, negative = inhibition) at 10uM” value does the source give for `COc1ccc(-n2c(=O)c3ccccc3n(CC(=O)c3ccccc3)c2=O)cc1OC` here?
Answer: -1.32%

Question: How did the “hERG current change (%, negative = inhibition) at 10uM” value turn out when `Cc1cc(C(=O)Nc2c(C)nn(Cc3ccc(Cl)cc3)c2C)no1` was run?
Answer: -15.4%

Question: Which “hERG current change (%, negative = inhibition) at 10uM” value does the source give for `O=C(O)CSCC(=O)Nc1ccccc1SCCS(=O)(=O)c1ccc(Cl)cc1` here?
Answer: 14.4%

Question: For `O=C(CSc1nnc(-c2ccco2)o1)NC1CCCCC1`, which “hERG current change (%, negative = inhibition) at 10uM” value is on record?
Answer: 14.6%

Question: How did the “hERG current change (%, negative = inhibition) at 10uM” value turn out when `O=C(CSc1nnc(NC(=O)c2ccccc2F)s1)NC1CCCC1` was run?
Answer: 14%

Question: With `COc1ccccc1NCC(=O)N/N=C/c1c(O)ccc2ccccc12` as the molecule, how does the “hERG current change (%, negative = inhibition) at 10uM” value read?
Answer: -16.7%

Question: For `Cc1ccc(NS(=O)(=O)c2ccc3c(c2)NC(=O)CCS3)c(C)c1`, which “hERG current change (%, negative = inhibition) at 10uM” value is on record?
Answer: 6.93%

Question: `COc1ccc(S(=O)(=O)n2nc(OC(=O)C3CCCCC3)cc2N)cc1` was tested. Which “hERG current change (%, negative = inhibition) at 10uM” value did it give?
Answer: 5.38%

Question: For `O=C(CCCN1C(=O)C(c2ccccc2)Oc2cccnc21)Nc1ccccc1Cl` (centres unmarked), which “hERG current change (%, negative = inhibition) at 10uM” value is on record?
Answer: 20.2%

Question: `CSCC[C@H](NC(=O)OC(C)(C)C)C(=O)N1CCC(C(=O)N[C@@H](C)C(=O)NCc2ccc(F)cc2)CC1` was tested. Which “hERG current change (%, negative = inhibition) at 10uM” value did it give?
Answer: 1.15%

Question: With `COc1ccc(NC(=O)CCNC(=O)Cn2cnc3sc4c(c3c2=O)CCCC4)c(OC)c1` as the molecule, how does the “hERG current change (%, negative = inhibition) at 10uM” value read?
Answer: 2.88%

Question: Which “hERG current change (%, negative = inhibition) at 10uM” value does the source give for `COc1ccc(NP(=O)(Oc2ccccc2OC)Oc2ccccc2OC)cc1` here?
Answer: -0.0316%

Question: `O=C(CN1CCN(c2ccccn2)CC1)Nc1ccccc1F` was tested. Which “hERG current change (%, negative = inhibition) at 10uM” value did it give?
Answer: 1.45%

Question: Which “hERG current change (%, negative = inhibition) at 10uM” value does the source give for `C=CCNC(=S)N/N=C/c1ccc(OCc2ccccc2)cc1` here?
Answer: -1.67%

Question: With `Cc1ccccc1CNC(=O)C1CCC(=O)N(CC2CCCCC2)C1` (centres unmarked) as the molecule, how does the “hERG current change (%, negative = inhibition) at 10uM” value read?
Answer: -11.8%

Question: `Cc1cccc(NC(=O)c2cccc(OC(=S)N3CCOCC3)c2)c1` was tested. Which “hERG current change (%, negative = inhibition) at 10uM” value did it give?
Answer: -8.01%

Question: Which “hERG current change (%, negative = inhibition) at 10uM” value does the source give for `Cc1nn(-c2ccccc2)c(Cl)c1C(=O)NCCN(C)C` here?
Answer: 15.9%

Question: For `Cc1ccc(C2(C)NC(=O)N(CC(=O)c3ccc(Cl)s3)C2=O)cc1` (centres unmarked), which “hERG current change (%, negative = inhibition) at 10uM” value is on record?
Answer: -2.75%

Question: How did the “hERG current change (%, negative = inhibition) at 10uM” value turn out when `Cc1cccc(N2CCN(C(=O)/C=C/c3ccco3)CC2)c1C` was run?
Answer: -25.1%

Question: With `COc1ccc(NCC(=O)N/N=C2\CCc3ccccc32)cc1` as the molecule, how does the “hERG current change (%, negative = inhibition) at 10uM” value read?
Answer: 1.87%

Question: For `O=S(=O)(Cc1ccccc1)N1CCCc2ccccc21`, which “hERG current change (%, negative = inhibition) at 10uM” value is on record?
Answer: 0.566%

Question: For `Cc1ccccc1C(=O)NC(=S)Nc1ccc(S(=O)(=O)N(C)c2ccccc2)cc1`, which “hERG current change (%, negative = inhibition) at 10uM” value is on record?
Answer: 0.146%

Question: `CC1CCCC(C)N1C(=O)CSc1nc(N)c(-c2ccccc2)c(=O)[nH]1` (centres unmarked) was tested. Which “hERG current change (%, negative = inhibition) at 10uM” value did it give?
Answer: -3.45%

Question: With `Nc1cc(N2CCCCCC2)c2nonc2c1[N+](=O)[O-]` as the molecule, how does the “hERG current change (%, negative = inhibition) at 10uM” value read?
Answer: 18.5%

Question: How did the “hERG current change (%, negative = inhibition) at 10uM” value turn out when `O=C(O)CCCN1C(=O)C2C3CC(C2C1=O)C1C(c2ccccc2)c2sc(=O)n(-c4ccccc4)c2SC31` (centres unmarked) was run?
Answer: 12%

Question: With `CC1CCCCC1NC(=O)COC(=O)CCC(=O)c1cccs1` (centres unmarked) as the molecule, how does the “hERG current change (%, negative = inhibition) at 10uM” value read?
Answer: 17.3%

Question: With `CCCN(CC1CC1)C(=S)Nc1ccc(C(C)=O)cc1` as the molecule, how does the “hERG current change (%, negative = inhibition) at 10uM” value read?
Answer: 0.105%

Question: For `COc1ccccc1CCC(=O)N(CCC1=CCCCC1)c1c(N)n(Cc2ccccc2)c(=O)[nH]c1=O`, which “hERG current change (%, negative = inhibition) at 10uM” value is on record?
Answer: 0.333%

Question: With `Cc1ccsc1C(=O)NNC(=O)C1C2C=CC(C2)C1C(=O)O` (centres unmarked) as the molecule, how does the “hERG current change (%, negative = inhibition) at 10uM” value read?
Answer: 11.8%
